Test results as given in patent US11420968B2 (priority 2018, dated 2022).
Where two headings read alike, the source gives them in different places.

Legend:
Molt-4 cells = assay: cells; details: Homo sapiens
RS4;11 cells = assay: cells; details: Homo sapiens
[1] = MOLT-4, read-out: Cellular activity (IC50, nM) Molt-4
[2] = RS4-11, 48 h, read-out: Cellular activity (IC50, nM) RS4, 11
[3] = RS4-11, 48 h, read-out: Cellular activity (IC50, nM) RS4;11

| Compound | IC50 (Molt-4 cells; [1]) | IC50 (RS4;11 cells; [2]) | IC50 (Molt-4 cells; MOLT-4, read-out: Celluclar activity (IC50, nM) Molt-4) | IC50 (RS4;11 cells; [3]) | IC50 (RS4;11 cells; RS4-11, read-out: Celluclar activity (IC50, nM) RS 4, 11) |
| --- | --- | --- | --- | --- | --- |
| O=C(NS(=O)(=O)c1ccc(NC[C@H]2CN(C3COC3)CCO2)c([N+](=O)[O-])c1)c1ccc(C2=CCC(N3CCCC3c3ccccc3C3CC3)CC2)cc1Oc1cnc2[nH]ccc2c1 (stereo partly drawn) [Example G111, 3-((1H-pyrrolo[2,3-b]pyridin-5-yl)oxy)-4′-(2-(2-cyclopropylphenyl)pyrrolidin-1-yl)-N-((3-nitro-4-((((S)-4-(oxetan-3-yl)morpholin-2-yl)methyl)amino)phenyl)sulfonyl)-2′,3′,4′,5′-tetrahydro-[1,1′-biphenyl]-4-carboxamide] | > 10000 nM | 253 nM |  |  |  |
| O=C(NS(=O)(=O)c1ccc(NC[C@@H]2CN(C3COC3)CCO2)c([N+](=O)[O-])c1)c1ccc(C2=CCC(N3CCCC3c3ccccc3C3CC3)CC2)cc1Oc1cnc2[nH]ccc2c1 (stereo partly drawn) [Example G112, 3-((1H-pyrrolo[2,3-b]pyridin-5-yl)oxy)-4′-((S)-2-(2-cyclopropylphenyl)pyrrolidin-1-yl)-N-((3-nitro-4-((((R)-4-(oxetan-3-yl)morpholin-2-yl)methyl)amino)phenyl)sulfonyl)-2′,3′,4′,5′-tetrahydro-[1,1′-biphenyl]-4-carboxamide] | 4280 nM | 12 nM |  |  |  |
| CS(=O)(=O)N1CCOC(CNc2ccc(S(=O)(=O)NC(=O)c3ccc(C4=CCC(N5CCCC5c5ccccc5C5CC5)CC4)cc3Oc3cnc4[nH]ccc4c3)cc2[N+](=O)[O-])C1 (stereo not drawn) [Example G113, 3-((1H-pyrrolo[2,3-b]pyridin-5-yl)oxy)-4′-(2-(2-cyclopropylphenyl)pyrrolidin-1-yl)-N-((4-(((4-(methylsulfonyl)morpholin-2-yl)methyl)amino)-3-nitrophenyl)sulfonyl)-2′,3′,4′,5′-tetrahydro-[1,1′-biphenyl]-4-carboxamide] | > 10000 nM | 124 nM |  |  |  |
| O=C(NS(=O)(=O)c1ccc(NCC2(F)CCN(C3COC3)CC2)c([N+](=O)[O-])c1)c1ccc(C2=CCC(N3CCC[C@H]3c3ccccc3C3CC3)CC2)cc1Oc1cnc2[nH]ccc2c1 (stereo partly drawn) [Example G114, 3-((1H-pyrrolo[2,3-b]pyridin-5-yl)oxy)-4′-((S)-2-(2-cyclopropylphenyl)pyrrolidin-1-yl)-N-((4-(((4-fluoro-1-(oxetan-3-yl)piperidin-4-yl)methyl)amino)-3-nitrophenyl)sulfonyl)-2′,3′,4′,5′-tetrahydro-[1,1′-biphenyl]-4-carboxamide] | 5970 nM | 18 nM |  |  |  |
| O=C(NS(=O)(=O)c1ccc(OCC2CCC(O)CC2)c([N+](=O)[O-])c1)c1ccc(C2=CCC(N3CCCC3c3cccc(Cl)c3C3CC3)CC2)cc1Oc1cnc2[nH]ccc2c1 (stereo not drawn) [Example G116, 3-((1H-pyrrolo[2,3-b]pyridin-5-yl)oxy)-4′-(2-(3-chloro-2-cyclopropylphenyl)pyrrolidin-1-yl)-N-((4-((4-hydroxycyclohexyl)methoxy)-3-nitrophenyl)sulfonyl)-2′,3′,4′,5′-tetrahydro-[1,1′-biphenyl]-4-carboxamide] | > 10000 nM | 20 nM |  |  |  |
| CN1CC=C(c2ccccc2[C@H]2CCCN2c2ccc(-c3ccc(C(=O)NS(=O)(=O)c4ccc(NC[C@H]5CC[C@](C)(O)CC5)c([N+](=O)[O-])c4)c(Oc4cnc5[nH]ccc5c4)c3)cc2)CC1 [Example G118, 3-((1H-pyrrolo[2,3-b]pyridin-5-yl)oxy)-N-((4-((((1r,4r)-4-hydroxy-4-methylcyclohexyl)methyl)amino)-3-nitrophenyl)sulfonyl)-4′-((R)-2-(2-(1-methyl-1,2,3,6-tetrahydropyridin-4-yl)phenyl)pyrrolidin-1-yl)-[1,1′-biphenyl]-4-carboxamide] | > 10000 nM |  | > 10000 nM | 2.8 nM | 2.8 nM |
| CN1CC=C(c2ccccc2[C@H]2CCCN2c2ccc(-c3ccc(C(=O)NS(=O)(=O)c4ccc(NCC5(F)CCOCC5)c([N+](=O)[O-])c4)c(Oc4cnc5[nH]ccc5c4)c3)cc2)CC1 [Example G119, (R)-3-((1H-pyrrolo[2,3-b]pyridin-5-yl)oxy)-N-((4-(((4-fluorotetrahydro-2H-pyran-4-yl)methyl)amino)-3-nitrophenyl)sulfonyl)-4′-(2-(2-(1-methyl-1,2,3,6-tetrahydropyridin-4-yl)phenyl)pyrrolidin-1-yl)-[1,1′-biphenyl]-4-carboxamide] | 7850 nM |  |  | 3.7 nM |  |
| CN1CC=C(c2ccccc2[C@H]2CCCN2c2ccc(-c3ccc(C(=O)NS(=O)(=O)c4ccc(NC[C@@H]5COCCO5)c([N+](=O)[O-])c4)c(Oc4cnc5[nH]ccc5c4)c3)cc2)CC1 [Example G120, N-((4-((((R)-1,4-dioxan-2-yl)methyl)amino)-3-nitrophenyl)sulfonyl)-3-((1H-pyrrolo[2,3-b]pyridin-5-yl)oxy)-4′-((R)-2-(2-(1-methyl-1,2,3,6-tetrahydropyridin-4-yl)phenyl)pyrrolidin-1-yl)-[1,1′-biphenyl]-4-carboxamide] | > 10000 nM |  |  | 9 nM |  |
| CN1CC=C(c2ccccc2[C@H]2CCCN2c2ccc(-c3ccc(C(=O)NS(=O)(=O)c4ccc(NCC5(F)CCN(C6COC6)CC5)c([N+](=O)[O-])c4)c(Oc4cnc5[nH]ccc5c4)c3)cc2)CC1 [Example G121, (R)-3-((1H-pyrrolo[2,3-b]pyridin-5-yl)oxy)-N-((4-(((4-fluoro-1-(oxetan-3-yl)piperidin-4-yl)methyl)amino)-3-nitrophenyl)sulfonyl)-4′-(2-(2-(1-methyl-1,2,3,6-tetrahydropyridin-4-yl)phenyl)pyrrolidin-1-yl)-[1,1′-biphenyl]-4-carboxamide] | > 10000 nM |  |  | 1.6 nM |  |
| CC(=O)N1CCC(c2ccccc2[C@H]2CCCN2c2ccc(-c3ccc(C(=O)NS(=O)(=O)c4ccc(NC[C@H]5CC[C@](C)(O)CC5)c([N+](=O)[O-])c4)c(Oc4cnc5[nH]ccc5c4)c3)cc2)CC1 [Example G123, 3-((1H-pyrrolo[2,3-b]pyridin-5-yl)oxy)-4′-((R)-2-(2-(1-acetylpiperidin-4-yl)phenyl)pyrrolidin-1-yl)-N-((4-((((1r,4r)-4-hydroxy-4-methylcyclohexyl)methyl)amino)-3-nitrophenyl)sulfonyl)-[1,1′-biphenyl]-4-carboxamide] | 3560 nM |  |  | 5.4 nM |  |
| CNCC(=O)N1CCC(c2ccccc2[C@H]2CCCN2c2ccc(-c3ccc(C(=O)NS(=O)(=O)c4ccc(NC[C@H]5CC[C@](C)(O)CC5)c([N+](=O)[O-])c4)c(Oc4cnc5[nH]ccc5c4)c3)cc2)CC1 [Example G125, 3-((1H-pyrrolo[2,3-b]pyridin-5-yl)oxy)-N-((4-((((1r,4r)-4-hydroxy-4-methylcyclohexyl)methyl)amino)-3-nitrophenyl)sulfonyl)-4′-((R)-2-(2-(1-(methylglycyl)piperidin-4-yl)phenyl)pyrrolidin-1-yl)-[1,1′-biphenyl]-4-carboxamide] | > 10000 nM |  |  | 33 nM |  |
| CC(C)(N)C(=O)N1CCC(c2ccccc2[C@H]2CCCN2c2ccc(-c3ccc(C(=O)NS(=O)(=O)c4ccc(NC[C@H]5CC[C@](C)(O)CC5)c([N+](=O)[O-])c4)c(Oc4cnc5[nH]ccc5c4)c3)cc2)CC1 [Example G127, 3-((1H-pyrrolo[2,3-b]pyridin-5-yl)oxy)-4′-((R)-2-(2-(1-(2-amino-2-methylpropanoyl)piperidin-4-yl)phenyl)pyrrolidin-1-yl)-N-((4-((((1r,4r)-4-hydroxy-4-methylcyclohexyl)methyl)amino)-3-nitrophenyl)sulfonyl)-[1,1′-biphenyl]-4-carboxamide] | > 10000 nM |  |  | 60.3 nM |  |
| CC(=O)N1CCC(CNc2ccc(S(=O)(=O)NC(=O)c3ccc(-c4ccc(N5CCC[C@@H]5c5ccccc5C5CC5)cc4)cc3Oc3cnc4[nH]ccc4c3)cc2[N+](=O)[O-])CC1 [Example G128, (R)-3-((1H-pyrrolo[2,3-b]pyridin-5-yl)oxy)-N-((4-(((1-acetylpiperidin-4-yl)methyl)amino)-3-nitrophenyl)sulfonyl)-4′-(2-(2-cyclopropylphenyl)pyrrolidin-1-yl)-[1,1′-biphenyl]-4-carboxamide] | 765 nM |  |  | 21 nM |  |
| CS(=O)(=O)N1CCC(CNc2ccc(S(=O)(=O)NC(=O)c3ccc(-c4ccc(N5CCC[C@@H]5c5ccccc5C5CC5)cc4)cc3Oc3cnc4[nH]ccc4c3)cc2[N+](=O)[O-])CC1 [Example G129, (R)-3-((1H-pyrrolo[2,3-b]pyridin-5-yl)oxy)-4′-(2-(2-cyclopropylphenyl)pyrrolidin-1-yl)-N-((4-(((1-(methylsulfonyl)piperidin-4-yl)methyl)amino)-3-nitrophenyl)sulfonyl)[1,1′-biphenyl]-4-carboxamide] | 974 nM |  |  | 35 nM |  |
| O=C(NS(=O)(=O)c1ccc(NCCN2CCOCC2)c([N+](=O)[O-])c1)c1ccc(-c2ccc(N3CCC[C@@H]3c3ccccc3C3CC3)cc2)cc1Oc1cnc2[nH]ccc2c1 [Example G130, (R)-3-((1H-pyrrolo[2,3-b]pyridin-5-yl)oxy)-4′-(2-(2-cyclopropylphenyl)pyrrolidin-1-yl)-N-((4-((2-morpholinoethyl)amino)-3-nitrophenyl)sulfonyl)-[1,1′-biphenyl]-4-carboxamide] | 2340 nM |  |  | 82 nM |  |
| C[C@]1(O)CC[C@H](CNc2ccc(S(=O)(=O)NC(=O)c3ccc(-c4ccc(N5CC(C(F)(F)F)CC5c5ccccc5C5CC5)cc4)cc3Oc3cnc4[nH]ccc4c3)cc2[N+](=O)[O-])CC1 (stereo partly drawn) [Example G134, 3-((1H-pyrrolo[2,3-b]pyridin-5-yl)oxy)-4′-(2-(2-cyclopropylphenyl)-4-(trifluoromethyl)pyrrolidin-1-yl)-N-((4-((((1r,4r)-4-hydroxy-4-methylcyclohexyl)methyl)amino)-3-nitrophenyl)sulfonyl)-[1,1′-biphenyl]-4-carboxamide] | 1430 nM |  |  | 33 nM |  |
| O=C(NS(=O)(=O)c1ccc(NCC2CCOCC2)c([N+](=O)[O-])c1)c1ccc(C2=CCC(N3CCCC3c3ccccc3C3CC3)CC2)cc1-n1ncc2nc3[nH]ccc3cc21 (stereo not drawn) [Example H3, 4′-(2-(2-cyclopropylphenyl)pyrrolidin-1-yl)-N-((3-nitro-4-(((tetrahydro-2H-pyran-4-yl)methyl)amino)phenyl)sulfonyl)-3-(pyrazolo[4,3-b]pyrrolo[3,2-e]pyridin-1(5H)-yl)-2′,3′,4′,5′-tetrahydro-[1,1′-biphenyl]-4-carboxamide] | > 10000 nM | 409 nM |  |  |  |
